About 12,000 (3.5%) of roughly 340,000 compounds were called active. The inconclusive results got no clear call from the source; some entries with a clear call stand among them for comparison. Calls come from the whole dose curve; as a rule, active = well fitted inhibition curve with a large enough effect; inconclusive = small, poorly fitted or top-dose-only effect, or another doubt; inactive = no such curve, though single readings can be large or run the other way. Potencies of inconclusive entries are left out as doubtful fits.
assay: qHTS Assay for Inhibitors of Hepatitis C Virus (HCV); settings: Huh7.5.1 HCVcc-Cre (HCVcc is cell-culture hepatitis C virus) infection, luciferase reporter, 44 h; activity change, negative = inhibition: at 41.8 µM (top of the series) unless noted
Procedure, shortened: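 Antiviral activity was scored by luciferase reporter output from cells infected with HCVcc-Cre (~0.5 moi) in presence of compound, 44 h infection period, cells seeded 1,000/well 4 h prior.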
% is set by controls: 0 for no effect and ±100 for the full control effect; potency is the fitted concentration of half-maximal effect; tags give direction and shape of the fitted curve.

Compound	Potency	activity change, negative = inhibition
CCOc1ccc(NC(=O)c2ccccc2NC(=O)CNC2CCCC(C)C2C)cc1 (configuration not stated)	inactive	
COc1nc(NCCO)nc(Nc2ccccc2F)n1	inconclusive [inhibitor, partial curve]	
C[C@H]1O[C@@H](OC2CC[C@]3(C=O)[C@H]4CC[C@]5(C)[C@@H](C6=CC(=O)OC6)CC[C@]5(O)[C@@H]4CC[C@]3(O)C2)CC2OC(C)(C)OC21 (some centres not stated)	active: 1 µM	
Cc1nc(NC(=O)COC(=O)CCc2nc3ccccc3s2)c(Cl)cc1Cl	inactive	
Cn1nc(C(=O)OCc2ccc(Br)cc2F)c2ccccc2c1=O	inconclusive [inhibitor, partial curve]	
NNC(=O)CSc1nc(-c2ccccc2)nc2c1CCCC2	inconclusive [inhibitor, single point]	
CCC(C)(C)NC(=O)c1sccc1Oc1ccc(F)cc1[N+](=O)[O-]	inconclusive [inhibitor, single point]	
CCCNC(=O)C(Cc1ccc(I)cc1)NC(=O)c1ccc(C#N)cc1 (configuration not stated)	inactive	
COc1cccc(/C=C/C(=O)OCC(=O)c2ccc(S(=O)(=O)N3CCCCC3)cc2)c1OC	inactive	
CN(C)C(=O)Oc1cccc([N+](C)(C)C)c1	inactive	
O=C1CCCC2=C1C(c1ccccc1)n1c(s/c(=C/c3cccc(F)c3)c1=O)=N2 (configuration not stated)	inactive	
CCOc1ccc(NS(=O)(=O)c2ccc(NC(=O)C3CCCO3)cc2)cc1 (configuration not stated)	inconclusive [inhibitor, single point]	
COC(=O)c1cc(NC(=O)C2(S(=O)(=O)c3ccc(Cl)cc3)CC2)cc(C(=O)OC)c1	inactive	
COc1ccccc1NC(=S)NC(=O)c1ccc(-c2ccc(Cl)cc2)o1	inconclusive [inhibitor, single point]	
O=C(Nc1ccc(NC(=O)c2cccs2)c(Cl)c1)c1cccs1	active: 11.2 µM	
NC1=NC[C@H](Cc2ccc(O)cc2)N1CCc1cccc2ccccc12	inactive	
O=C(COC(=O)c1ccccc1Cc1ccccc1)Nc1ccc(SC(F)F)cc1	inconclusive [inhibitor, single point]	
CCOC(=O)c1c(NC(=O)C2CC2)sc(C)c1CC	inconclusive [inhibitor, partial curve, poor fit]	
N=C(N)SCP(=O)(c1ccccc1)c1ccccc1	inconclusive [inhibitor, single point]	
Cc1nc2c(C)cccc2c2c1CCN2c1ccccc1F	inconclusive [inhibitor, single point]	
O=C(N/N=C/c1ccccc1)c1ccc(NC(=O)c2ccc(F)cc2)cc1	inconclusive [inhibitor, partial curve]	
CCn1c(SCC(=O)N2CCCCC2C)nc2ccsc2c1=O (configuration not stated)	inconclusive [inhibitor, single point]	
Cn1c(SCc2ccccc2C#N)nnc1-c1ccncc1	inactive	
CCOC(=O)[C@H]1[C@H]2COc3ccccc3[C@@H]2N2C(=O)c3cc(Cl)ccc3NC(=O)[C@@]12C	inactive	

Compound	Potency	activity change, negative = inhibition
C=CCNC(=S)NNC(=O)c1cccn(Cc2ccc(Cl)cc2Cl)c1=O	inconclusive [inhibitor, partial curve]	
CC(C)=CCOc1c2ccoc2cc2oc(=O)ccc12	inconclusive [inhibitor, single point]	
Fc1ccc2cc(-c3ccccc3)ncc2c1	inconclusive [inhibitor, single point]	
O=S(=O)(NCCc1csc(-c2ccccc2)n1)c1ccc2c(c1)OCCO2	inconclusive [inhibitor, single point]	
CCc1ccc(NC(=O)C2CCN(S(=O)(=O)c3ccc4c(c3)N(C(C)=O)CCO4)CC2)cc1	inconclusive [inhibitor, single point]	
CCOC(=O)N1CCc2c(sc(NC(=O)CN(CC)CC)c2C#N)C1	inactive	
CCN(CC)C1=CC(=[N+]2CCCC2)CC(C)(C)C1	inconclusive [inhibitor, full curve, poor fit]	
CC(=O)Nc1ccc(-c2csc(NC(=O)Nc3ccccc3)n2)cc1	active: 10 µM	
CSc1ccccc1C(=O)Nc1nc2ccccc2c(=O)[nH]1	inconclusive [inhibitor, single point]	
CC1C(=O)CCCCCCCCCC2C1(N1CCOCC1)CS2(=O)=O (configuration not stated)	inconclusive [inhibitor, partial curve]	
CC1CCCCC12NC(=O)N(CC(=O)NCc1ccc3c(c1)OCO3)C2=O (configuration not stated)	inactive	
NC(N)=NS(=O)(=O)c1ccc(NC(=S)NC(=O)c2ccncc2)cc1	inactive	
OCCc1c[nH]c2ccccc12	inactive	
Cc1ccc(OCCNC(=O)c2cccc(S(=O)(=O)N3CCN(Cc4ccccc4)CC3)c2)cc1	inconclusive [inhibitor, partial curve]	
Cc1c(C(=O)N2CCN(Cc3ccc4c(c3)OCO4)CC2)sc2ncnc(N3CCN(c4ccccc4F)CC3)c12	inconclusive [inhibitor, partial curve]	
Cc1ccc(NC(=O)c2ccc(Cl)c(S(=O)(=O)Nc3c(C)n(C)n(-c4ccccc4)c3=O)c2)cc1Cl	inconclusive [inhibitor, full curve]	
Cc1ccc(S(=O)(=O)N2Cc3cnnn3-c3ccccc3C2C#N)cc1 (configuration not stated)		inactive: -20.3% [at 8.37 µM]
COC(=O)c1ccc(/C=N/OCC(=O)NCCc2ccc(OC)c(OC)c2)cc1	inactive	
Cc1ccc(Cl)cc1NC(=O)COC(=O)C12CC3CC(CC(C3)C1)C2	inactive	
COc1ccc(CCNC(=O)c2cc3c(F)cccc3s2)cc1OC	inconclusive [inhibitor, single point]	
CSCC[C@H](NS(=O)(=O)c1ccc(C)cc1)C(=O)N1CCC(C(=O)N[C@H](C(=O)O)c2ccccc2)CC1	inactive	
COC(=O)c1nn(-c2ccc3c(c2)CCN3C(C)=O)cc1O	inactive	
COC(=O)c1c(CSc2ccc(C)c(C)c2)noc1C(=O)NCc1ccc(OC)cc1	inconclusive [inhibitor, partial curve]	
COc1ccc(CNC(=O)CNC(=O)c2sc3ccccc3c2Cl)cc1OC	inconclusive [inhibitor, full curve]	

Compound	Potency	activity change, negative = inhibition
Cc1cc(C(=O)C(C)Sc2cccc[n+]2[O-])c(C)n1-c1ccc(Cl)cc1 (configuration not stated)	active: 4.47 µM	
O=[N+]([O-])c1ccc(CN2CCCCCC2)cc1	inactive	
O=C(Nc1ccc(N2CCN(C(=O)c3ccccc3)CC2)c(Cl)c1)c1ccc(Br)o1	inconclusive [inhibitor, single point]	
Cc1sc(NC(=O)c2cc(-c3ccccc3)nc3ccccc23)c(C(N)=O)c1C	active: 12.6 µM	
CCc1cccc(CC)c1NC(=O)CN1CCN(S(=O)(=O)c2ccccc2)CC1	inconclusive [inhibitor, partial curve]	
O=C1CC(c2cccc([N+](=O)[O-])c2)c2cc3c(cc2N1)CCC3 (configuration not stated)	inconclusive [inhibitor, single point]	
O=C(Oc1c(Br)cc(Br)c2cccnc12)N1CCCCC1	inconclusive [inhibitor, single point]	
Nc1ccc2nc(-c3cccs3)[nH]c2c1	inconclusive [inhibitor, single point]	
Cc1cc(C)c2nc(-c3ccccn3)cc(C(=O)N3CCCC3)c2c1	inconclusive [inhibitor, full curve, poor fit]	
c1ccc(-c2cc(-c3nnco3)c3ccccc3n2)nc1	inconclusive [inhibitor, single point]	
Cc1cccc2cc(C#N)c(N3CCN(C)CC3)nc12	active: 10 µM	
COCc1cc(OC(=O)N(C)C)nc(-c2ccc(C)c(Cl)c2)n1	inconclusive [inhibitor, partial curve]	
C=CCNc1cnn(-c2ccccc2)c(=O)c1Cl	inactive	
COc1ccccc1Cn1c(=S)[nH]c2ccc(Br)cc2c1=O	inconclusive [inhibitor, single point]	
O=C(CNC(=S)N(Cc1ccccc1)Cc1ccccc1F)NCc1ccc(Cl)cc1	inconclusive [inhibitor, single point]	
CN(C)CCN(C(=O)c1ccc2c(c1)CCCC2)c1nc2cc3c(cc2s1)OCCO3	inconclusive [inhibitor, partial curve, poor fit]	
Cc1noc(C)c1NC(=O)N(C)C[C@@H]1Oc2ccc(NS(=O)(=O)c3c(C)noc3C)cc2C(=O)N([C@H](C)CO)C[C@H]1C	active: 3.16 µM	
Cn1cc(C(=O)Nc2ccc3c(c2)CCC3)cn1	inactive	
Cc1ccc(C2Nc3ccccc3-c3nc4ccccc4n32)o1 (configuration not stated)	inconclusive [inhibitor, partial curve]	
CC(C)(O)C1C2OC(=O)C1C1(O)CC3OC34C(=O)OC2C14C (configuration not stated)	inactive	
CCOC(=O)C1CCN(C(=O)C(C)Oc2ccc(C(=O)c3ccccc3)cc2)CC1 (configuration not stated)	inconclusive [inhibitor, single point]	
Cc1cc(C)c2c(N)c(C(=O)N3CCN(c4ncccn4)CC3)sc2n1	inactive	
CN(CC(=O)Nc1cccc(F)c1)C(=O)CCCN1C(=O)c2cccc3cccc(c23)C1=O	inconclusive [inhibitor, full curve, poor fit]	
Cc1cc(Cl)c2oc(C(=O)N3CCN(C4CCS(=O)(=O)C4)CC3)c(C)c2c1 (configuration not stated)	inactive	

From PubChem BioAssay AID651820 (National Center for Advancing Translational Sciences (NCATS), 2012)
